# According to the supplement of paper PMC3334620:
# In all, about 33,000 sequences were measured (“E-score (-0.5 to 0.5)”: median about -0.013, highest 2% from about 0.3 on). This is one part of the list.
# Biological target: T1, Msn1 (UniProt P22148)
# T1 sequence: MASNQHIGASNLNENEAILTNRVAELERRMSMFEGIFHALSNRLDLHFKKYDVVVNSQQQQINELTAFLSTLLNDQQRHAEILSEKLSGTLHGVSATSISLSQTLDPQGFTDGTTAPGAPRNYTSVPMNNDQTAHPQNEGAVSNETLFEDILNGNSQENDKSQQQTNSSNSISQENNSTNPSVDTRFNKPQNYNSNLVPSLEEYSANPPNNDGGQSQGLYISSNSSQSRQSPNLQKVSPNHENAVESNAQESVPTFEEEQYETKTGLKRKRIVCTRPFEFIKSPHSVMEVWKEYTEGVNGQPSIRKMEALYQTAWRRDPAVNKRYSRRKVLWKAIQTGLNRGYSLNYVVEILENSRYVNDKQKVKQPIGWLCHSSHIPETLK
# Assay: PBM E-score (8-mer binding enrichment) (E-score (-0.5 to 0.5)); higher = stronger / more preferred TF binding; most listed sequences are background and not binding sites
# Conditions: protein concentration: 200 nM; construct: GST-full length
# Method in brief: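 Using PURExpress in vitro transcription/translation, GST-tagged yeast transcription factors were made in full-length or DNA-binding-domain form. These were applied at about 100-200 nM to double-stranded universal all-10-mer Agilent arrays, and bound protein was detected with fluorescent anti-GST. Scans were normalised with masliner before the Universal PBM Analysis Suite assigned E-scores to ungapped eight-base words pooled with their reverse complements.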
row,Sequence,PBM E-score
1,AAGAAGAG,-0.019
2,GCGACGCA,0.0716
3,TGTACTAA,0.321
4,ACCATGGA,-0.00474
5,GCGTGGAC,0.172
6,CGTGTCTA,0.166
7,ACGCGAAC,0.0104
8,AGCTTTTA,-0.0221
9,CGGGCTAC,0.18
10,CTAACTGA,0.0193
11,GATCAATA,-0.0199
12,CAAGTAGC,-0.00336
13,ATAATTCG,0.0794
14,CGTCCACG,0.155
15,AGAAACTA,-0.0608
16,CTCAGCTA,-0.0867
17,TATGAGAA,0.0684
18,AGGAACAT,0.104
19,CGGTGCAA,-0.136
20,CTCACCAG,-0.105
21,ACCAAGTC,0.0143
22,TGCCGCAA,0.106
23,CAATTCAC,0.0172
24,TGAGCACA,-0.0787
25,ACGTACCT,-0.0473

row,Sequence,PBM E-score
1,CCTCACGC,0.0345
2,AATTCCGT,0.162
3,CCCCGACA,0.105
4,ACGCATGA,0.0653
5,CGAGTATC,-0.121
6,GCGCCAGC,-0.173
7,ATCCCGGA,0.194
8,CAACCAGC,-0.114
9,ACAGGGGG,-0.471
10,AAATGGAT,-0.0165
11,AGGAGCGC,-0.207
12,GGCTGATA,-0.0273
13,GAATTACC,0.0764
14,GGCTGCCC,-0.215
15,GTACGGAC,0.261
16,ACGAGCGG,-0.176
17,CCGGTTGA,-0.0935
18,GGGGATTA,-0.228
19,TGCAAAAA,0.105
20,ATCGTGGC,-0.139
21,ATTTCTCG,0.255
22,AATAGCAT,0.109
23,AGCTCTGA,-0.158
24,AGACGACC,-0.182
25,AGCGACCT,-0.0614

row,Sequence,PBM E-score
1,GCTAGTCC,0.215
2,AATTCTCA,0.0796
3,AAAGAAAG,0.0461
4,AGGTGGAG,-0.147
5,GAAACAAA,0.186
6,CTAGCTAG,0.0713
7,CGATGCGA,-0.147
8,GAAGTTCA,-0.00825
9,AACCGCGC,0.0302
10,ACTTTCGC,0.0997
11,AACCAGGT,-0.0554
12,AGGGCCGC,-0.0735
13,ATCGAACC,-0.0171
14,ACAACTCG,0.21
15,ACAGTACC,-0.0814
16,AGCATACC,-0.0756
17,CCAAAAGC,0.0259
18,CAGGCATC,-0.0274
19,AGGATTAT,-0.0424
20,GCCTTATA,-0.0588
21,AATGATCT,0.191
22,CGGATGGA,0.0989
23,CGTCAAAG,0.038
24,CCTTATAA,0.0581
25,GTGTGGGA,0.0637

row,Sequence,PBM E-score
1,CGAAAACG,0.146
2,CATTCATC,-0.00585
3,TCAGCGGA,0.0824
4,AATATGTG,0.181
5,CACAGTCA,-0.0378
6,ACGTACCC,-0.0327
7,CATTTACC,0.201
8,AGCATGAG,-0.0774
9,CGTTTCAG,0.176
10,ACCGCGGT,0.107
11,AGGTAGAT,-0.0882
12,CCCTTCCG,-0.277
13,ATATATCC,0.195
14,CATTAGGA,0.064
15,TATTAAAA,0.236
16,GAAGACTC,0.048
17,GGTCGTAC,-0.126
18,GGGTGGAA,-0.224
19,GTGCTGAA,-0.191
20,ACCGACGA,0.0949
21,GTCCCGAC,0.191
22,TACCAGTA,0.116
23,ATATCGGC,0.149
24,CTATCCTC,-0.167
25,GGAAGTAC,-0.136

row,Sequence,PBM E-score
1,CATGGGCC,-0.163
2,GACGTCGC,-0.165
3,CCCAACTC,-0.0737
4,CAAGGTTC,-0.0921
5,GACAAGAA,0.374
6,AAAACCTT,-0.197
7,CCGAGATC,0.0634
8,CAGAACCA,-0.0963
9,AAAAGATG,0.0869
10,GATCGTAA,0.114
11,ACGCATTG,-0.0899
12,ATTAGAAT,0.0939
13,AACGCGAT,-0.0845
14,CTGCAAAA,0.0838
15,CGCCAGAG,-0.148
16,ATTACAGC,-0.151
17,AAACGAGG,-0.0812
18,ACCGCTAG,-0.0798
19,AACTTGTC,0.391
20,CAGTAGCG,-0.0401
21,TAACTCGA,0.16
22,CTAGGTAA,-0.141
23,ACACGTGA,0.108
24,TATATTAA,0.232
25,ACTGCGAC,0.0372

row,Sequence,PBM E-score
1,CACCTGCC,-0.202
2,ACAGAATC,0.0712
3,AGATGTAT,-0.0433
4,ACCTGGTG,-0.32
5,AAAGGAGT,-0.084
6,GACTGAAC,-0.0291
7,CGTCAGGA,-0.0453
8,GATGTACA,0.2
9,AATCGCGG,-0.0441
10,GGTCCAAC,-0.0461
11,ATCGAGGC,-0.0295
12,AATGGATA,-0.0648
13,AACTTTCG,-0.0271
14,ACGCCCGC,-0.0536
15,GATGACAC,0.06
16,CAACGATG,-0.0474
17,GTGGGCCA,-0.0613
18,CATCGTCA,0.0515
19,GTTCAGCA,-0.0288
20,AGGAAAAG,0.0156
21,CCCTCTGA,-0.174
22,GTCTGTCA,0.181
23,CTCTAGAG,-0.256
24,ACTGTTAA,0.0626
25,CCCTTTAC,-0.168

row,Sequence,PBM E-score
1,AAAAAGTA,0.173
2,AACAGTAA,0.013
3,AATCTGCG,0.0799
4,ACTAGAGT,-0.0625
5,ACAGCTCT,-0.242
6,TGTTGCAA,0.0681
7,ATAGAGAG,-0.195
8,TATGAGCA,-0.218
9,GGGGACCA,-0.223
10,AGTGTTCC,0.0105
11,CCATGCAC,-0.0223
12,CACCGAGC,0.00319
13,GGTATACC,0.017
14,ACTTTTCC,0.206
15,AGCATGTA,0.0635
16,GCTGAGAA,-0.176
17,CGTTATTC,0.0268
18,GAATTCGA,-0.0695
19,CTTATGAC,0.233
20,AATCCTGT,0.243
21,CGATTATA,0.229
22,AGCGGTGG,-0.209
